Experimental data from PubChem BioAssay (NCATS).
Inconclusive means that the source gave no clear call. Such entries were picked first, then a sample of the others. Potencies of inconclusive entries are doubtful fits and often do not repeat. Activity calls are given as the source filed them. Calls follow the shape of the dose curve; as a rule, active = well fitted inhibition curve with a large enough effect; inconclusive = small, poorly fitted or top-dose-only effect; inactive = no such curve, though single readings can be large or run the other way.

test: BET inhibitor-based combinations targeting novel dependencies in MECOM-rearranged (r) AML: HNT-34 cell line (AID 2202234); details: HNT-34 AML viability, CellTiter-Glo luminescence, 48 h; series mostly up to 46 µM; also: nearly all actives have a fitted effect of over 35% in size
Summary of the method: (§1)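 Luminescent ATP readout (CellTiter-Glo, 15 min at room temperature) after 48 hr drug exposure gave viability. Dose-response curves, normalized to DMSO and empty-well controls, were summarized as area under the curve and its mean-centred Z-score.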
Potency is read from the fitted curve at half-maximal effect; tags tell the direction and shape of the fitted curve.

Structure (SMILES) | Potency
COc1ccc2c(c1OC)C(=O)OC2[C@H]1c2c(cc3c(c2OC)OCO3)CCN1C (some centres undefined) | inconclusive: 23.5 µM [inhibitor, partial curve]
COc1cc2ncn(-c3cc(OCc4ccccc4C(F)(F)F)c(C(N)=O)s3)c2cc1OC | inconclusive: 1.32 µM [inhibitor, full curve]
COc1ccc(CNc2nc(N(CCO)CCO)nc3c2ncn3C(C)C)cc1 | active: 7.42 µM
COc1cc([C@@H]2c3cc4c(cc3[C@H](O)[C@H]3COC(=O)[C@H]23)OCO4)cc(OC)c1OC | inconclusive: 0.0332 µM [inhibitor, full curve]
COc1cccc(Nc2ncnn3ccc(CN4CC[C@@H](N)[C@H](O)C4)c23)c1 | active: 1.32 µM

test: BET inhibitor-based combinations targeting novel dependencies in MECOM-rearranged (r) AML: UCSD-AML1 cell line (AID 2202235); details: UCSD-AML1 AML cells viability, CellTiter-Glo, 48 h; series mostly up to 46 µM; also: nearly all actives have a fitted effect of over 40% in size
Summary of the method: as §1

Structure (SMILES) | Potency
c1cc(-c2cnn3cc(-c4ccc(OCCN5CCCCC5)cc4)cnc23)ccn1 | active: 9.34 µM
COc1cc(C(=O)NC2CCN(C)CC2)ccc1Nc1ncc2c(n1)N(C1CCCC1)CCC(=O)N2C(C)C | inconclusive: 11.8 µM [inhibitor, partial curve, poor fit]
O=C1Nc2nc(-c3c(O)cccc3OCC3CC3)cc([C@@H]3CCCNC3)c2CO1 | inconclusive: 8.33 µM [inhibitor, single point]
CCCCCCCCCC(=O)N[C@@H](Cc1c[nH]c2ccccc12)C(=O)N[C@H](CC(N)=O)C(=O)N[C@@H](CC(=O)O)C(=O)N[C@@H]1C(=O)NCC(=O)N[C@@H](CCCN)C(=O)N[C@@H](CC(=O)O)C(=O)N[C@H](C)C(=O)N[C@@H](CC(=O)O)C(=O)NCC(=O)N[C@H](CO)C(=O)N[C@@H]([C@@H](C)CC(=O)O)C(=O)N[C@@H](CC(=O)c2ccccc2N)C(=O)O[C@@H]1C | inactive
